One assay deals with HSkMC. Put plainly: cytotoxicity call (relative viability < 0.9). As to conditions: 10 µM.
Another assay has as its system HepG2. Put plainly: cytotoxicity call (relative viability < 0.9). The following applies: 10 µM.
For a further assay, the system named is S. aureus RN4220. Kind of assay: growth inhibition call (relative growth <= 0.2). The following applies: 50 µM.

This is one part of the list.

Take `CN1C(=O)c2cc(NS(=O)(=O)c3cccc(F)c3)ccc2OC[C@@H]2O[C@H](CC(=O)NCCN3CCCCC3)CC[C@H]21`: the cytotoxicity call with HSkMC and in the assay with HepG2 was “inactive” throughout. For the same compound, the growth inhibition call in the assay with S. aureus RN4220 is “inactive”.
In the case of `COc1ccc(S(=O)(=O)Nc2ccc3c(c2)C(=O)N([C@@H](C)CO)C[C@H](C)[C@H](CN(C)Cc2ccc(C(=O)O)cc2)OCCCC[C@H](C)O3)cc1`, the cytotoxicity call in the assay with HSkMC and in the assay with HepG2 was “inactive” in each case. In the assay on S. aureus RN4220, the growth inhibition call is “inactive”.
For the compound `CN(C)CC/C=C1/c2ccccc2Sc2ccc(Cl)cc21`, the cytotoxicity call in the assay with HSkMC is “inactive”. Also, the cytotoxicity call in the assay with HepG2 was “active”. In the assay on S. aureus RN4220, the growth inhibition call is “inactive”.
For the compound `COc1ccc(S(=O)(=O)Nc2ccc3c(c2)CC(=O)N([C@H](C)CO)C[C@H](C)[C@H](CN(C)CC2CC2)O3)cc1`, the cytotoxicity call in the assay with HSkMC and with HepG2 was “inactive” throughout. The growth inhibition call in the assay with S. aureus RN4220 was “inactive”.
As to `COc1ccc(S(=O)(=O)N[C@@H](CNc2nc(C)nc(N3CCC(c4ccc5c(n4)NCCC5)CC3)c2C)C(=O)O)cc1`, the cytotoxicity call in the assay on HSkMC was “inactive”. In the assay on HepG2, the cytotoxicity call was “active”. In the assay on S. aureus RN4220, the growth inhibition call was “inactive”.
For the compound `O=C(CCN1CCNCC1)N1CCCCC1`, the cytotoxicity call with HSkMC and in the assay with HepG2 was “inactive” in each case. The growth inhibition call in the assay on S. aureus RN4220 is “inactive”.
On to `COc1ccc(S(=O)(=O)N(C)C[C@H]2Oc3ccc(NS(=O)(=O)c4ccccc4)cc3C(=O)N([C@@H](C)CO)C[C@@H]2C)cc1`, for which the cytotoxicity call in the assay on HSkMC and with HepG2 was “inactive” throughout. In addition, the growth inhibition call in the assay on S. aureus RN4220 is “inactive”.
For the compound `C[C@@H]1CCCCO[C@H](CN(C)C(=O)C2CCCCC2)[C@H](C)CN([C@@H](C)CO)C(=O)c2cc(NC(=O)c3ccccc3)ccc2O1`, the cytotoxicity call in the assay on HSkMC and in the assay with HepG2 was “inactive” in each case. In the assay on S. aureus RN4220, the growth inhibition call was “inactive”.
Turning to `CC(C)NC(=O)N(C)C[C@H]1Oc2c(NC(=O)C3CCOCC3)cccc2C(=O)N([C@H](C)CO)C[C@@H]1C`, the cytotoxicity call in the assay on HSkMC and with HepG2 was “inactive” throughout. The growth inhibition call in the assay on S. aureus RN4220 is “inactive”.
For `CC(C)(C)OC(=O)CC[C@]1(C(=O)NCc2ccccc2)N=C(c2ccc(OCCCO)cc2)O[C@H]1c1ccccc1`, the cytotoxicity call in the assay with HSkMC was “inactive”. Further, the cytotoxicity call in the assay with HepG2 is “active”. Also, the growth inhibition call in the assay with S. aureus RN4220 is “inactive”.
For the compound `Cc1cc(-c2nnc(N)o2)nn1C`, the cytotoxicity call with HSkMC and in the assay on HepG2 was “inactive” throughout. Further, the growth inhibition call in the assay on S. aureus RN4220 was “inactive”.
As to `Cc1cc2c(s1)Nc1ccccc1N=C2N1CCN(C)CC1`, the cytotoxicity call in the assay with HSkMC and in the assay with HepG2 was “inactive” throughout. In the assay with S. aureus RN4220, the growth inhibition call was “inactive”.
Consider `Cc1noc(C)c1NC(=O)N(C)C[C@@H]1OCCCC[C@H](C)Oc2ccc(NC(=O)NC3CCCCC3)cc2C(=O)N([C@@H](C)CO)C[C@@H]1C`, for which the cytotoxicity call with HSkMC and in the assay with HepG2 was “inactive” throughout. In addition, the growth inhibition call in the assay on S. aureus RN4220 was “inactive”.
With `C[C@@H]1CN([C@H](C)CO)C(=O)c2cc(NS(=O)(=O)c3ccc(Cl)cc3)ccc2O[C@@H](C)CCCCO[C@H]1CN(C)S(=O)(=O)c1ccc(F)cc1`, the cytotoxicity call in the assay on HSkMC was “inactive”. In addition, in the assay with HepG2, the cytotoxicity call is “active”. The growth inhibition call in the assay on S. aureus RN4220 was “inactive”.
As for `COc1ccc(CN(C)C[C@H]2Oc3ccc(NC(=O)CCCN(C)C)cc3C(=O)N([C@H](C)CO)C[C@H]2C)cc1`, the cytotoxicity call in the assay with HSkMC and in the assay on HepG2 was “inactive” throughout. In the assay on S. aureus RN4220, the growth inhibition call is “inactive”.
Consider `C[C@H](CO)N1C[C@H](C)[C@@H](CN(C)C(=O)Cc2ccccc2)OCCCC[C@H](C)Oc2ccc(NC(=O)c3ccccc3)cc2C1=O`, for which the cytotoxicity call with HSkMC and in the assay on HepG2 was “inactive” each time. In the assay on S. aureus RN4220, the growth inhibition call is “inactive”.
Turning to `Cn1c(C(=O)N2CCCO[C@@H](Cn3cccn3)C2)cc(=O)n(C)c1=O`, the cytotoxicity call with HSkMC and in the assay on HepG2 was “inactive” each time. For the same compound, the growth inhibition call with S. aureus RN4220 is “inactive”.
For the compound `C[C@H](CO)N1C[C@H](C)[C@@H](CN(C)C(=O)Nc2ccc(C(F)(F)F)cc2)Oc2ccc(NC(=O)C3CCCCC3)cc2CC1=O`, the cytotoxicity call in the assay with HSkMC and with HepG2 was “inactive” in each case. The growth inhibition call in the assay with S. aureus RN4220 was “inactive”.
On to `Cc1noc(C)c1S(=O)(=O)N(C)C[C@@H]1OCCCC[C@H](C)Oc2ccc(NC(=O)Nc3ccc(C(F)(F)F)cc3)cc2C(=O)N([C@H](C)CO)C[C@@H]1C`, for which, in the assay with HSkMC, the cytotoxicity call was “inactive”. Moreover, in the assay on HepG2, the cytotoxicity call was “active”. The growth inhibition call in the assay with S. aureus RN4220 is “inactive”.
For `O=C(O)CNS(=O)(=O)c1ccccc1`, the cytotoxicity call in the assay with HSkMC and with HepG2 was “inactive” throughout. Besides, the growth inhibition call with S. aureus RN4220 was “inactive”.
On to `Cc1noc(C)c1NC(=O)N(C)C[C@@H]1Oc2ccc(NS(C)(=O)=O)cc2CC(=O)N([C@@H](C)CO)C[C@@H]1C`, for which the cytotoxicity call in the assay with HSkMC and in the assay with HepG2 was “inactive” throughout. Moreover, in the assay on S. aureus RN4220, the growth inhibition call is “inactive”.
Turning to `COc1ccc(NC(=O)Nc2cccc3c2O[C@@H](CN(C)Cc2ccc(C(=O)Nc4ccccc4N)cc2)[C@H](C)CN([C@H](C)CO)C3=O)cc1`, the cytotoxicity call with HSkMC and in the assay with HepG2 was “inactive” each time. Besides, the growth inhibition call in the assay on S. aureus RN4220 was “inactive”.
For `CCSC(=N)N`, the cytotoxicity call in the assay with HSkMC and with HepG2 was “inactive” in each case. Also, in the assay with S. aureus RN4220, the growth inhibition call was “inactive”.
For the compound `C[C@H]1CN([C@@H](C)CO)C(=O)c2cccc(NC(=O)c3nc4ccccc4s3)c2O[C@H]1CN(C)C(=O)Nc1ccc(C(F)(F)F)cc1`, in the assay with HSkMC, the cytotoxicity call is “inactive”. In addition, in the assay with HepG2, the cytotoxicity call was “active”. Further, in the assay on S. aureus RN4220, the growth inhibition call was “inactive”.
For the compound `CS(=O)(=O)c1ccc(C#N)cc1`, the cytotoxicity call in the assay with HSkMC and with HepG2 was “inactive” each time. Also, the growth inhibition call in the assay on S. aureus RN4220 was “inactive”.
On to `NNC(=O)c1nc(-c2ccccc2)no1`, for which the cytotoxicity call with HSkMC and with HepG2 was “inactive” each time. In the assay on S. aureus RN4220, the growth inhibition call was “inactive”.
With `COc1ccc(S(=O)(=O)Nc2ccc3c(c2)C(=O)N([C@H](C)CO)C[C@H](C)[C@@H](CN(C)C(=O)Nc2c(C)noc2C)OCCCC[C@H](C)O3)cc1`, the cytotoxicity call in the assay on HSkMC and in the assay with HepG2 was “inactive” each time. Also, the growth inhibition call in the assay with S. aureus RN4220 is “inactive”.
As to `CCCNC(=O)N1C[C@]2(CN(C2)S(=O)(=O)c2cccc(c2)OC)c2c(n(c3cc(ccc23)OC)C)[C@H]1CO`, the cytotoxicity call in the assay on HSkMC and in the assay on HepG2 was “inactive” in each case. The growth inhibition call in the assay on S. aureus RN4220 was “inactive”.
For the compound `O=C(O)C[C@H](O)C(=O)O`, the cytotoxicity call in the assay on HSkMC (human skeletal muscle cells) and in the assay with HepG2 was “inactive” in each case. In addition, in the assay with S. aureus RN4220, the growth inhibition call was “inactive”.
On to `CC(C)NC(=O)Nc1ccc2c(c1)C(=O)N([C@@H](C)CO)C[C@@H](C)[C@H](CN(C)C(=O)C1CCCCC1)OCCCC[C@@H](C)O2`, for which the cytotoxicity call with HSkMC and with HepG2 was “inactive” in each case. Moreover, in the assay on S. aureus RN4220, the growth inhibition call was “inactive”.

Values taken from the antibiotic and cytotoxicity screens of Wong et al. (2023).
